From the supplement of paper PMC11417369
± gives the standard deviation of the averaged measurements. The list shows a part of the results.

Test system: PfAP2-G AP2 domain (GST-tagged)
Assay: gcPBM binding intensity (ln(normalized median fluorescence intensity)); higher = stronger DNA binding
Procedure, shortened: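 Each value is the highest Masliner-normalised natural-log median intensity across replicate spots of either orientation of a probe. The probes were primer-extended double-stranded 36-bp intergenic genomic sequences on an Agilent 4 × 180k array, alongside negative controls, exposed for 1 h to GST-tagged P. falciparum DNA-binding domains expressed in E. coli. Bound protein was picked up with Alexa488 anti-GST antibody and scanned at 488 nm.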

Sequence | gcPBM binding intensity (ln)
TGTTCTAATATTTGTTGTACATTTACATTTCTCTCT [XGTACX_site2585] | 11.1 ± 0.56
ATAATAGAAACAAACAGTACACATACCTAAAAGGAA [XGTACX_site8647] | 11 ± 0.57
AAAAAAAAAGAGGCGTGTACATATATAATTTAAATT [XGTACX_site6827] | 11.2 ± 0.59
ATTTACATAAACGTCTGTACTAATATACAATTTTCT [XGTACX_site1700] | 11.1 ± 0.71
CATAAAATTGTATTTTGTACACATTTTGTATACATT [XGTACX_site5705] | 11.4 ± 0.82
TATATATAGAAACACACACACATATATATATATATT [CACACA_site4115] | 9.89 ± 0.13
TTACTTTAACCTTCTCGTACTTATTTACTTTATTCT [XGTACX_site7801] | 10.7 ± 0.26
ATAACATAGGCAATCACACATATCATTAAGGTGTCA [CACACA_site5233] | 9.85 ± 0.028
ACTGTGGTATAAAGTTGTACATGTTTTTATATATTT [XGTACX_site5257] | 11.4 ± 0.75
TACTTTTATATGAATACACACAGGAATATATATATG [CACACA_site3568] | 10.2 ± 0.17
TTTCAAAGGAAATGGTGTACACAATTTTTCCTTTTT [XGTACX_site2340] | 11.7 ± 0.88
TTTTATTATTCTTCTCTCTTATATATATATATATAT [CACACA_negctrl_site646] | 10.1 ± 0.43
TGATTGTATTAAAATGCACACATATCAAGAGGAATT [CACACA_site7985] | 10.1 ± 0.099
TTAATTTTTTTTTTTTGTACTCATATGTAATTCATC [XGTACX_site3071] | 11.3 ± 0.93
ATTAAAACAAATATGTGTACATAAAAATATATATAT [XGTACX_site8394] | 11.5 ± 0.94
TATTATTATTATTATTTTAAAAGAAATAAAAATATG [XGTACX_negctrl_site119] | 9.98 ± 0.16
GTCTAAAAATAAAAAGTGCATTTGTTTAATATTTTG | 10.13 ± 0.085
ATTTTAATTTTTTAAGTATTATATGAATATTTATTA [TGCATGCA_negctrl_site142] | 9.72 ± 0.071
CACACGCACGAACACACACACACACGCGCACATATA [CACACA_site6304] | 10.6 ± 0.42
TAATTTTCATAATTTTGTACTTAACGTTTTACCTTG [XGTACX_site8048] | 10.9 ± 0.5
ACATATATATATATATATATATATATATATTCTTAA [CACACA_negctrl_site930] | 10.3 ± 0.42
TCGATTAAAACACAAAAATATAAATACATTGATAAA [TGCATGCA_negctrl_site523] | 9.65 ± 0.085

Sequence | gcPBM binding intensity (ln)
TTAATAAATATGTTTACACACGAAAATACATTTTTT [CACACA_site8245] | 9.895 ± 0.035
TTAAAAGTTATGGATACACACATATAAATATAGATT [CACACA_site7175] | 10.1 ± 0.15
TCTTCGAAACTATCACTCTCACAATTCATTTATTTT [TGCATGCA_negctrl_site156] | 9.85 ± 0.057
ATAAATAAGAAAAATTGTACAATATTTTTTAGGATA [XGTACX_site3163] | 11.1 ± 0.52
TAGAATTAAGTTATTGCACACAGGAAAAGTTTCATA [CACACA_site1634] | 9.99 ± 0.071
AATCCTTACGAACACACACACACGAATAAATAAAAA [CACACA_site6363] | 10.3 ± 0.39
ATATACACATTAATAACACACAATATGATAACAAAT [CACACA_site7670] | 10.2 ± 0.32
CTGTGTTTTGGTTGTACACACGCTACATTATATATT [CACACA_site5487] | 11.6 ± 0.9
ATATACATTAAATGAACACACATAAATAAATTACAT [CACACA_site2852] | 9.955 ± 0.078
TTTTAATTTTGTTGTTGTACAAATAACATGTGAGGG [XGTACX_site4401] | 11.2 ± 0.83
TATTTTATCATTTTTTTTATGTCTTTATTTCACTTG [CACACA_negctrl_site1398] | 9.89 ± 0.042
ATATATATATATATATCATTTATTTAAAAATTTTTT [TGCATGCA_negctrl_site228] | 9.91 ± 0.52
CTCATTTTTGTACAGGTGCACTTATCGTTACACTAT | 11.3 ± 0.71
AACACATAAAAAAGGTGTACCATAAAATATACATAC [XGTACX_site4478] | 11.4 ± 0.76
AAAGTTTTTATAAAAAAAAAAATAAATACCATATAT [XGTACX_negctrl_site113] | 10.11 ± 0.014
GTGTTTTTATGTGAATGTACATATTTACTATCACAC [XGTACX_site2388] | 11.2 ± 0.6
GTGCATAAATCATACACACACACATATATAAATATA [CACACA_site7188] | 10.2 ± 0.22
AAAAGTTTAAGTTTTCGAAAATTTACCAAAAAAAAA [CACACA_negctrl_site1644] | 10.1 ± 0.16
ATTTATAATATGTATACACACACATATATAAATATA [CACACA_site8729] | 10 ± 0.16
AAATTGGGGCTTGTTACACACTTAGTGTGAGTTCTA [CACACA_site6417] | 10.2 ± 0.22
GTTCAATTATTTTTATGTACATATATTTTTTTCTTT [XGTACX_site2505] | 11.4 ± 0.89
TATAATCATAAATACACACACATATATATATATATA [CACACA_site5224] | 10.1 ± 0.33
